# Measured values from PubChem BioAssay (NCI).
# A structure can be active in one record and inactive in another.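 Interpretation: 100, growth as untreated; towards 0, rising growth inhibition; 0, no net growth; 0 to -100, cell death. Compounds scoring below 10 were considered active.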 Certain results were filed several times, with different values. They are shown here; other results are not. An entry can have further records. The screen tested this drug many times, at the concentration stated with the values; one value stands for one run. Signs of the kind (2×) give the number of equal values in this list.
# Tested on: MCF7 breast
# Experiment: NCI-60 one-dose screen, 48 h (100 = growth as untreated, 0 = no growth, -100 = all killed)
structure (smiles),measurement,setting,value
COc1cccc2c1C(=O)c1c(O)c3c(c(O)c1C2=O)C[C@@](O)(C(=O)CO)C[C@@H]3OC1CC(N)C(O)C(C)O1 (stereo partly specified),growth,"0.25 µM, runs of 2017","inactive: 17.1 (2×), 16.5 (4×), 17.5 (2×), 17 (2×), 17.6, 19.7 (2×), 21, 13.4, 20.1 (3×), 20.5 (3×), 19.5, 18.8 (3×), 23.8 (2×), 25.9, 15.7, 18.7 (2×), 21.8, 22.2, 20.6 (2×), 20.2 (2×), 16.7, 23.6 (2×), 25.5, 19.4 (2×), 22.7, 18.3 (2×), 19, 21.3 (2×), 16.9, 18.1, 14.5, 20.3, 18.2, 19.9, 22.5, 13.7, 15.3, 14, 17.8, 24.2, 19.8, 23.5, 22.3, 20.7 (2×), 21.2, 16%"
same,growth,"0.25 µM, runs of 2018","inactive: 20.1 (4×), 19.2, 19.9 (2×), 17.3 (2×), 15.8 (2×), 16.2, 15.4, 20.4, 18.2 (2×), 19.6, 22.9, 24.2, 20.2 (2×), 21.8 (2×), 19.4 (3×), 23.9, 21, 17.5, 20.5 (2×), 27, 25.7, 18.1 (2×), 20.7, 19.3, 22.5, 21.3 (2×), 22.7, 20.6, 23, 22% (2×) and active: 9.82%"
same,growth,"0.25 µM, runs of 2019","active: 8.41%, 8.67%, 9.78% and inactive: 14 (2×), 14.5, 13.8, 13.6 (2×), 20.5, 22.3, 18.1, 22.6, 22.2, 20.6, 15.3 (2×), 14.1 (2×), 18.2, 19.4, 15.8, 16.8, 16.7, 18.8, 14.9, 21.3, 19.9, 17.3, 16.1, 17.8, 17.6, 20.3, 22.5, 15.4, 17.4, 15.7, 20.2, 20.7, 21, 12.7, 12.9%"
same,growth,"0.25 µM, runs of 2020","inactive: 15.1, 15, 21.7, 19.4, 17.4 (2×), 15.9 (3×), 15.4, 20.9 (2×), 17.6, 19.3, 20.5, 18.1, 19.7, 17.1, 22.1, 13.1, 25.3, 31.2%"
same,growth,"0.25 µM, runs of 2021","inactive: 25.1 (2×), 19.4, 26.4, 15.7 (3×), 16.5, 14, 13.6, 13.3, 13, 15.8 (2×), 15.4, 19.2, 15.5 (2×), 14.2, 18.7 (2×), 17, 14.9 (2×), 20.7, 18.3 (3×), 18, 14.1, 17.5 (2×), 16.9, 17.1, 14.6, 17.4, 20.5 (2×), 22, 22.1, 23.7, 16.8, 20.2, 13.7, 10.8, 11.8, 10.5, 19.9, 19.6% and active: 7.02%"
same,growth,"0.25 µM, runs of 2022","active: 4.97, 5.5, 0.756, 9.53% and inactive: 16.1, 17.5, 16.6, 17.1, 22.6, 15.2, 18.3, 16.5, 34, 31.9, 33.1, 37.8, 19.9, 18.2, 14, 21.2, 18.7%"
same,growth,"25 µM, runs of 1993","active: -27.3, -45.6, 1.53, -45.8, -39.6, -23.5, -32.4, 3.96, -37.2, -36.4 (2×), 4.05, -7.88, 4.92, -30.6, -2.04, -9.74, -27, -14.1, -1.78, -24, 1.28, -4.51, -11.6, -18, -8.31, -7.39, -19.2, -9.34, -0.413, -1.24, -2.93, -20.8, -39.1, -12.3, 0.322, -42.1, 3.54, -17.8, -39.7, -30.3, -38, -50.9, -11.8, -16, -32.2%"
same,growth,"25 µM, runs of 1994","active: -9.6, -2.1, -56.9, 1.21, -15.3, 4.38, -9.28, 8.01, -14.1, -17.4, -20.9, -22, -9.15, -0.674, -28.2, 2.8, -3.74, -27.6, -20.8, 1.17, -69.4, 3.5, -27.5, 5.78, -31, 0.808, -9.66% and inactive: 120%, 11.7%"
same,growth,"25 µM, runs of 1995","active: 2.81, -31.2, -15.9, -17.8, -31.5, -51.4, 1.62, 2.59, -34.3, -26.2, -65.5, -20.3 (2×), -42.2, -47.1, 1.89, 1.13, -67.5, -25, 7.02, -20.7 (3×), 2.53, -26.8 (2×), 6.21, 2.94, -19, 2.17, 4.43, -11.6, 0.505, -21.3, 1.61, -3.21, 1.47, -25.6, -24.2, -7.51, -22.7, 0.68, 3.81, 1.83, 7.2, -0.415, 5.28, 5.55, 2.54, -41.9% and inactive: 11.9%, 52.2%, 29.5%"
same,growth,"25 µM, runs of 1996","active: -5.04 (2×), -11.1, -1.06, 3.68, -12.9, -5.2, 1.57, 3.95, 0.853, -88.3, -44, -49.2, 2.64, -5.58, -18.3, -15.2, -21.2, -3.09, -43.4, 2.97, -62.9, -71.3, -17.9, -100 (2×), -59.7, 5.57, 7.71, -2.43, -6.01, -6, -47.5, -6.91, 7.57, 6.58, -17.2, 3.56, -2.16, -23.6 (2×), -8.96, -18.7, 0.419, -25.6, -45 (2×), -66.7, 1.93, 6.2 (2×), -8.12, -28.2, 6.85, -15.7 (2×), -8.41, -23.3, -62.5, -94, 1.22, -18.1, -13.8, -16, -25.2, -13.5, -25.3, -4.38, -21, -8.42, -31.3, -40.5, 1.33, 4.07, -9.75, 7.89, 2.49, 0, -40.3, 6.64, -12.4, 2.58, -16.1, -40.1, 1.09, -38.5, -22.1, -36.7, -3.32, -45.4, -44.3, -22, 2.39, -42.3, -3.61, -4.93, 0.114, -3.5, 3.72, 7.67, -50.5, -67.7, 4.02% and inactive: 10.4, 85.5, 83.6, 11, 89.4, 12.2, 41.2, 11.1, 15.5%"
same,growth,"25 µM, runs of 1997","active: 4.21, -27.2, 3.64, 3.87, 2.24, -33.5, 3.66, -43.7, 5.14, -8.3, -6.23, 8.92, -18.3, 5.58, -32.1, -24.7, -6.14, -27.1, -24.3, -0.972, -3.3, 0.673, 1.12, -36.6, -18, -12.3, 2.31, -9.69, -4.46, -24.5, -7.41, -44.5, -40, -21.1, -20, -3.83, 0.259, -14.1, -34.8, -4.59, -11.7, -6.49, 9.16, -2.96, -55.4, -18.2, -34.7, -53.8, -71, -26.9, -13.7, -35.4, 4.74, 6.14% and inactive: 12, 89.3, 11, 11.7, 69, 70.6, 21.7%"
